# Laboratory results published in the supplement of paper PMC8728848.
# Some of the results follow.
# What was measured:
# Experiment in all cases: glycan array binding signal (z-score within array); higher = stronger binding
# Settings in all cases: glycan notation: IUPAC condensed, linker removed
# [1] = molecular target: Neu5Ac(a2-3)Gal(b1-4)GlcNAc(b1-6)GalNAc
# Summary of the method: (§1)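 Columns mapping to the same glycan were averaged after glycan names were converted to IUPAC-condensed notation. The data come from 3228 arrays in the Consortium for Functional Glycomics database, limited to those with an available protein sequence. Binding is reported as a within-array Z-score averaged across arrays of one protein sequence and across linkers.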
# [2] = molecular target: Neu5Ac(a2-3)Gal(b1-4)GlcNAc(b1-6)[Gal(b1-3)]GalNAc
# Summary of the method: as §1
# [3] = molecular target: Neu5Ac(a2-3)Gal(b1-4)GlcNAc(b1-6)[Neu5Ac(a2-3)Gal(b1-3)]GalNAc
# Summary of the method: as §1
# [4] = molecular target: Neu5Ac(a2-3)Gal(b1-4)GlcNAc6S
# Summary of the method: as §1
# [5] = molecular target: Neu5Ac(a2-3)Gal(b1-4)[Fuc(a1-3)]GlcNAc
# Summary of the method: as §1
# [6] = molecular target: Neu5Ac(a2-3)Gal(b1-4)[Fuc(a1-3)]GlcNAc(b1-2)Man
# Summary of the method: as §1
# [7] = molecular target: Neu5Ac(a2-3)Gal(b1-4)[Fuc(a1-3)]GlcNAc(b1-3)Gal
# Summary of the method: as §1
# [8] = molecular target: Neu5Ac(a2-3)Gal(b1-4)[Fuc(a1-3)]GlcNAc(b1-3)Gal(b1-4)GlcNAc
# Summary of the method: as §1
# [9] = molecular target: Neu5Ac(a2-3)Gal(b1-4)[Fuc(a1-3)]GlcNAc(b1-3)Gal(b1-4)[Fuc(a1-3)]GlcNAc(b1-3)Gal(b1-4)[Fuc(a1-3)]GlcNAc
# Summary of the method: as §1
# [10] = molecular target: Neu5Ac(a2-3)Gal(b1-4)[Fuc(a1-3)]GlcNAc(b1-3)GalNAc
# Summary of the method: as §1
# [11] = molecular target: Neu5Ac(a2-3)Gal(b1-4)[Fuc(a1-3)]GlcNAc(b1-6)[Gal(b1-3)]GalNAc
# Summary of the method: as §1
# [12] = molecular target: Neu5Ac(a2-3)Gal(b1-4)[Fuc(a1-3)]GlcNAc(b1-6)[Neu5Ac(a2-3)Gal(b1-3)]GalNAc
# Summary of the method: as §1
# [13] = molecular target: Neu5Ac(a2-3)Gal(b1-4)[Fuc(a1-3)]GlcNAc6S
# Summary of the method: as §1
# [14] = molecular target: Neu5Ac(a2-3)Gal6S(b1-4)GlcNAc
# Summary of the method: as §1
# [15] = molecular target: Neu5Ac(a2-3)Gal6S(b1-4)[Fuc(a1-3)]GlcNAc
# Summary of the method: as §1
# Neu5Ac(a2-3)GalNAc = molecular target: Neu5Ac(a2-3)GalNAc
# Summary of the method: as §1
# [16] = molecular target: Neu5Ac(a2-3)GalNAc(b1-4)GlcNAc
# Summary of the method: as §1
# [17] = molecular target: Neu5Ac(a2-3)[GalNAc(b1-4)]Gal(b1-4)Glc
# Summary of the method: as §1
# [18] = molecular target: Neu5Ac(a2-3)[GalNAc(b1-4)]Gal(b1-4)GlcNAc
# Summary of the method: as §1
# [19] = molecular target: Neu5Ac(a2-3)[GalNAc(b1-4)]Gal(b1-4)GlcNAc(b1-3)GalNAc
# Summary of the method: as §1
# [20] = molecular target: Neu5Ac(a2-3)[Neu5Ac(a2-6)]GalNAc
# Summary of the method: as §1
# Neu5Ac(a2-6)Gal = molecular target: Neu5Ac(a2-6)Gal
# Summary of the method: as §1
# [21] = molecular target: Neu5Ac(a2-6)Gal(b1-3)GlcNAc(b1-3)[Gal(b1-4)GlcNAc(b1-6)]Gal(b1-4)Glc
# Summary of the method: as §1
# Neu5Ac(a2-6)Gal(b1-4)Glc = molecular target: Neu5Ac(a2-6)Gal(b1-4)Glc
# Summary of the method: as §1
# [22] = molecular target: Neu5Ac(a2-6)Gal(b1-4)GlcNAc
# Summary of the method: as §1
# [23] = molecular target: Neu5Ac(a2-6)Gal(b1-4)GlcNAc(b1-2)Man
# Summary of the method: as §1
# [24] = molecular target: Neu5Ac(a2-6)Gal(b1-4)GlcNAc(b1-2)Man(a1-3)Man(b1-4)GlcNAc(b1-4)GlcNAc
# Summary of the method: as §1
# [25] = molecular target: Neu5Ac(a2-6)Gal(b1-4)GlcNAc(b1-2)Man(a1-3)[Gal(b1-4)GlcNAc(b1-2)Man(a1-6)]Man(b1-4)GlcNAc(b1-4)GlcNAc
# Summary of the method: as §1
# [26] = molecular target: Neu5Ac(a2-6)Gal(b1-4)GlcNAc(b1-2)Man(a1-3)[GlcNAc(b1-2)Man(a1-6)]Man(b1-4)GlcNAc(b1-4)GlcNAc
# Summary of the method: as §1
# [27] = molecular target: Neu5Ac(a2-6)Gal(b1-4)GlcNAc(b1-2)Man(a1-3)[GlcNAc(b1-4)][Neu5Ac(a2-6)Gal(b1-4)GlcNAc(b1-2)Man(a1-6)]Man(b1-4)GlcNAc(b1-4)GlcNAc
# Summary of the method: as §1
# [28] = molecular target: Neu5Ac(a2-6)Gal(b1-4)GlcNAc(b1-2)Man(a1-3)[Man(a1-6)]Man(b1-4)GlcNAc(b1-4)GlcNAc
# Summary of the method: as §1
binder,measurement,setting,value
Arath Fbox LD (Arabidopsis thaliana) (protein) EFSVWLEKASGKRCLMLSAMNLSIIWGDNPQYWQWIPIPESRFEKVAKLRDVCWFEIRGRTNTRVLSPRTRYSAYIVFKGVDKCYGFQNVAIEAAVGVVGQEPSRRLICFSEAIRRGRRNVVKPKQREDGWMEIELGEFFNDGGIMDNDEIEMSALETKQLNRKCGLIIQGIEIRPAKILAAASFLEQKLISEEDLNSAVDHHHHHH,glycan array binding signal (z-score),[1],-0.388
same,glycan array binding signal (z-score),[2],-0.599
same,glycan array binding signal (z-score),[3],-0.499
same,glycan array binding signal (z-score),[4],2.19
same,glycan array binding signal (z-score),[5],-0.514
same,glycan array binding signal (z-score),[6],-0.353
same,glycan array binding signal (z-score),[7],-0.477
same,glycan array binding signal (z-score),[8],-0.229
same,glycan array binding signal (z-score),[9],-0.474
same,glycan array binding signal (z-score),[10],-0.289
same,glycan array binding signal (z-score),[11],-0.099
same,glycan array binding signal (z-score),[12],-0.61
same,glycan array binding signal (z-score),[13],-0.349
same,glycan array binding signal (z-score),[14],0.922
same,glycan array binding signal (z-score),[15],-0.626
same,glycan array binding signal (z-score),Neu5Ac(a2-3)GalNAc,-0.421
same,glycan array binding signal (z-score),[16],-0.59
same,glycan array binding signal (z-score),[17],-0.091
same,glycan array binding signal (z-score),[18],-0.521
same,glycan array binding signal (z-score),[19],-0.387
same,glycan array binding signal (z-score),[20],-0.019
same,glycan array binding signal (z-score),Neu5Ac(a2-6)Gal,2.83
same,glycan array binding signal (z-score),[21],-0.592
same,glycan array binding signal (z-score),Neu5Ac(a2-6)Gal(b1-4)Glc,0.791
same,glycan array binding signal (z-score),[22],-0.052
same,glycan array binding signal (z-score),[23],-0.264
same,glycan array binding signal (z-score),[24],-0.022
same,glycan array binding signal (z-score),[25],-0.363
same,glycan array binding signal (z-score),[26],-0.265
same,glycan array binding signal (z-score),[27],0.252
same,glycan array binding signal (z-score),[28],-0.11
